# Source: the supplement of paper PMC9446081
# The whole screen tested about 39,000 compounds, of which about 220 (0.56%) showed activity. Some of the results follow.
# System: Escherichia coli K-12 BW25113
# Experiment: relative growth (OD600 normalised to plate interquartile mean) (fraction); higher = less growth inhibition, active = 0.2 or less
# Conditions: 50 µM; LB; incubation time: overnight (16-24 h)
# 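Further: static incubation at 37 °C against the wild-type strain, values averaged over two biological replicates.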
row,Structure (SMILES),relative growth
1,CC(=O)c1cncnc1,inactive: 0.991
2,Cc1noc(C)c1NC(=O)N(C)C[C@H]1Oc2ccc(NC(=O)C3CC3)cc2C(=O)N([C@@H](C)CO)C[C@@H]1C,inactive: 1.01
3,Cc1noc(C)c1NC(=O)N(C)C[C@@H]1Oc2c(NC(=O)c3cnccn3)cccc2C(=O)N([C@@H](C)CO)C[C@@H]1C,inactive: 1.03
4,O=C(O)[C@@H]1C2C=CC3(O2)C1C(=O)N1CCS(=O)[C@H]13 (some centres not stated),inactive: 0.985
5,C[C@H]1CN([C@@H](C)CO)C(=O)Cc2cc(NC(=O)C3CCCCC3)ccc2O[C@H]1CN(C)Cc1ccc(C(=O)Nc2ccccc2N)cc1,inactive: 1.03
6,C[C@@H]1CCCCO[C@@H](CN(C)Cc2ccccc2)[C@@H](C)CN([C@H](C)CO)C(=O)c2cc(NC(=O)NC3CCCCC3)ccc2O1,inactive: 1.02
7,COc1cccc(S(=O)(=O)N(C)C[C@H]2Oc3ncc(C#CCN(C)C)cc3C(=O)N([C@@H](C)CO)C[C@@H]2C)c1,inactive: 0.995
8,C[C@H](CO)N1C[C@H](C)[C@@H](CN(C)C(=O)Cc2ccccc2)Oc2cc(C#CC3(O)CCCC3)ccc2S1(=O)=O,inactive: 1.01
9,CCC(=O)N(C)C[C@H]1Oc2ncc(C#C[C@H](C)O)cc2C(=O)N([C@@H](C)CO)C[C@H]1C,inactive: 1.05
10,C[C@@H]1CCCCO[C@@H](CN(C)Cc2ccc(C(=O)O)cc2)[C@H](C)CN([C@@H](C)CO)C(=O)c2cc(NC(=O)Nc3ccc(F)cc3)ccc2O1,inactive: 0.991
11,COc1ccc(S(=O)(=O)Nc2ccc3c(c2)CC(=O)N([C@@H](C)CO)C[C@@H](C)[C@@H](CN(C)Cc2ccc(-c4ccccc4)cc2)O3)cc1,inactive: 1.02
12,Cc1ccc(S(=O)(=O)Nc2ccc3c(c2)C(=O)N([C@@H](C)CO)C[C@H](C)[C@H](CN(C)C(=O)Nc2c(C)noc2C)OCCCC[C@H](C)O3)cc1,inactive: 1.03
13,O=C(O)CNC(=O)C1CCC1,inactive: 1.01
14,C[C@@H](O)[C@@H](Nc1ncnc2ccccc12)C(=O)O,inactive: 0.988
15,C(=N\n1cnnc1)/c1ccco1,inactive: 0.988
16,Cc1noc(C)c1S(=O)(=O)Nc1cccc2c1O[C@H](CN(C)Cc1ccccc1)[C@H](C)CN([C@@H](C)CO)C2=O,inactive: 1
17,C[C@@H]1CN([C@@H](C)CO)C(=O)c2cc(NC(=O)Cn3cnnn3)ccc2O[C@H]1CN(C)CC1CCCCC1,inactive: 0.982
18,COc1ccc2c(c(Br)c(C(=O)O)n2CCCOc2cccc3ccccc23)c1-c1ccccc1C,inactive: 1
19,C[C@@H]1CCCCO[C@H](CN(C)C(=O)Nc2ccc3c(c2)OCO3)[C@H](C)CN([C@H](C)CO)C(=O)c2cc(NC(=O)c3ccccc3)ccc2O1,inactive: 1.02
20,CC(C)N1C[C@@H](CN(C)Cc2ccc(Cl)c(Cl)c2)Oc2c(NC(=O)c3ccncc3)cccc2C1=O,inactive: 1
21,C[C@@H]1CCCCO[C@@H](CN(C)Cc2ccc(C(F)(F)F)cc2)[C@H](C)CN([C@H](C)CO)C(=O)c2cc(NS(=O)(=O)c3ccc(Cl)cc3)ccc2O1,inactive: 1.01

row,Structure (SMILES),relative growth
1,O=C(O)C1CCNCC1,inactive: 0.901
2,NCC[C@@H]1CC[C@@H](NC(=O)C2CCCC2)[C@@H](CO)O1,inactive: 1
3,Cc1noc(C)c1NC(=O)N(C)C[C@@H]1Oc2ccc(NC(=O)Cn3cnnn3)cc2CC(=O)N([C@H](C)CO)C[C@@H]1C,inactive: 1
4,CC(C)NC(=O)Nc1ccc2c(c1)C(=O)N(C)[C@H]1CC[C@H](CC(=O)NCc3ccc(F)cc3)O[C@@H]1CO2,inactive: 0.954
5,C[C@H]1CN([C@@H](C)CO)C(=O)Cc2cc(NC(=O)Cc3cn(C)c4ccccc34)ccc2O[C@H]1CN(C)Cc1ccc(-c2ccccc2)cc1,inactive: 1.01
6,C[C@@H]1CN([C@@H](C)CO)C(=O)c2cccc(NC(=O)c3ccncc3)c2O[C@H]1CN(C)Cc1ccc(Oc2ccccc2)cc1,inactive: 1.01
7,C[C@H](CO)N1C[C@H](C)[C@H](CN(C)C(=O)Nc2cccc3ccccc23)OCCCC[C@H](C)Oc2ccc(NC(=O)Nc3ccc(F)cc3)cc2C1=O,inactive: 1.03
8,O=C(O)[C@H]1CCCC[C@@H]1C(=O)N1CCOCC1,inactive: 1.03
9,C[C@@H]1CN([C@H](C)CO)C(=O)c2cc(NS(=O)(=O)c3ccc(F)cc3)ccc2O[C@@H]1CN(C)C(=O)Nc1cccc2ccccc12,inactive: 1.03
10,C[C@@H]1CCCCO[C@@H](CN(C)C(=O)CCC(F)(F)F)[C@@H](C)CN([C@H](C)CO)C(=O)c2cc(NS(=O)(=O)c3ccc(F)cc3)ccc2O1,inactive: 0.979
11,C[C@@H]1CN([C@H](C)CO)C(=O)c2cc(NC(=O)Nc3ccc4c(c3)OCO4)ccc2O[C@@H](C)CCCCO[C@@H]1CN(C)Cc1ccncc1,inactive: 0.985
12,C[C@H]1CN([C@@H](C)CO)S(=O)(=O)c2ccc(C#CCC3CCCC3)cc2O[C@H]1CN(C)C(=O)c1cnccn1,inactive: 0.983
13,C[C@H](CO)N1C[C@H](C)[C@H](CN(C)C(=O)Nc2cccc(F)c2)OCc2ccccc2-c2c(n(C)c3ccccc23)C1=O,inactive: 1.01
14,C[C@H]1CN([C@@H](C)CO)C(=O)c2cc(NS(=O)(=O)c3ccc(F)cc3)ccc2O[C@@H]1CN(C)S(=O)(=O)c1ccc(F)cc1,inactive: 0.997
15,CN1CCN(C(=O)C[C@@H]2CC[C@H]3[C@H](COc4ccc(NC(=O)c5cscn5)cc4C(=O)N3C)O2)CC1,inactive: 0.98
16,C[C@H]1CN([C@@H](C)CO)C(=O)c2cccc(NS(=O)(=O)c3ccccc3)c2O[C@H]1CN(C)CC1CC1,inactive: 0.985
17,O=C(C[C@H]1CC[C@@H](NS(=O)(=O)c2ccc(F)cc2)[C@H](CO)O1)N1CCC(Cc2ccccc2)CC1,inactive: 0.994
18,Cc1cc(C(=O)Nc2cccc3c2O[C@H](CN(C)C(=O)Nc2ccccc2)[C@@H](C)CN([C@@H](C)CO)C3=O)n(C)n1,inactive: 0.983
19,COCCNc1cc(NC(=O)N2CCCc3cc(CN4CCN(C)CC4=O)c(C=O)nc32)ncc1C#N,inactive: 1.05
20,COc1cccc(C(=O)Nc2ccc3c(c2)C(=O)N(C)[C@@H]2CC[C@H](CC(=O)NCC(F)(F)F)O[C@@H]2CO3)c1,inactive: 0.96
21,CC(C)N1CC=C[C@@]23O[C@@H]4C=CCOC(=O)[C@@H]4[C@H]2C(=O)N(CCCCCO)[C@@H]3C1=O,inactive: 1.04

row,Structure (SMILES),relative growth
1,C[C@@H]1CN([C@@H](C)CO)C(=O)c2cccc(NS(=O)(=O)c3cn(C)cn3)c2O[C@@H]1CN(C)S(=O)(=O)c1cn(C)cn1,inactive: 1.01
2,O=S(=O)(Nn1cnnc1)c1ccccc1,inactive: 1.02
3,C[C@@H]1CCCCO[C@@H](CN(C)Cc2ccc(C(F)(F)F)cc2)[C@@H](C)CN([C@H](C)CO)C(=O)c2cc(NC(=O)CCC(F)(F)F)ccc2O1,inactive: 0.973
4,C[C@H](CO)N1C[C@H](C)[C@H](CN(C)C(=O)Nc2cccc(F)c2)OCc2ccccc2-c2ccccc2C1=O,inactive: 0.971
5,CC(C)NC(=O)Nc1cccc2c1O[C@@H](CN(C)S(=O)(=O)c1cccs1)[C@@H](C)CN([C@@H](C)CO)C2=O,inactive: 0.908
6,C[C@H](CO)N1C[C@H](C)[C@@H](CN(C)C(=O)NC2CCCCC2)Oc2ccc(NC(=O)Cn3cnnn3)cc2C1=O,inactive: 1
7,O=C/C=C/c1ccccc1Cl,inactive: 0.934
8,Cn1cnc(CCNC(=O)C[C@H]2CC[C@H]3[C@@H](COC[C@H](O)CN3C(=O)Nc3ccc(Cl)cc3)O2)c1,inactive: 0.938
9,CCS(=O)(=O)N1C[C@]2(CN(C2)S(=O)(=O)c2cn(cn2)C)c2c(n(c3cc(ccc23)OC)C)[C@H]1CO,inactive: 1.01
10,CC(C)(C)OC(=O)C[C@H]1CC=CC[C@H](CC(=O)NCCO)C(=O)N[C@@H](Cc2c[nH]c3ccccc23)COC1=O,inactive: 1.01
11,C[C@H]1CN([C@@H](C)CO)C(=O)Cc2cc(NC(=O)C3CC3)ccc2O[C@H]1CN(C)S(=O)(=O)c1ccccc1,inactive: 0.99
12,C[C@@H]1CN([C@H](C)CO)C(=O)c2cc(NC(=O)CCCN(C)C)ccc2O[C@@H](C)CCCCO[C@@H]1CN(C)CC1CCCCC1,inactive: 0.992
13,COc1ccc2c3c(n(c2c1)C)[C@@H](CO)N(C[C@]13CN(C1)C(=O)C1CCOCC1)C(=O)C1CCOCC1,inactive: 1
14,CCS(=O)(=O)N1C[C@]2(C1)CN([C@@H](CO)c1c2c2ccc(cc2n1C)OC)S(=O)(=O)c1ccccc1,inactive: 0.999
15,Cc1noc(C)c1NC(=O)N(C)C[C@H]1Oc2ccc(NS(=O)(=O)c3cccs3)cc2CC(=O)N([C@@H](C)CO)C[C@@H]1C,inactive: 1.01
16,C[C@@H]1CCCCO[C@H](CN(C)S(=O)(=O)c2ccc(Cl)cc2)[C@@H](C)CN([C@H](C)CO)C(=O)c2cc(NC(=O)c3ccncc3)ccc2O1,inactive: 1.01
17,C=CCNC(=O)[C@H]1[C@@H]2C(=O)O[C@@H](c3ccccc3)[C@@H](c3ccccc3)N2[C@@H](c2ccc(O)cc2)[C@]12C(=O)N(C(=O)OCCOC)c1ccc(C#Cc3ccc(OC)cc3)cc12,inactive: 1.05
18,C[C@H](CO)N1C[C@H](C)[C@H](CN(C)Cc2ccc(C(=O)Nc3ccccc3N)cc2)Oc2ccc(NS(=O)(=O)c3cn(C)cn3)cc2CC1=O,inactive: 1.02
19,C[C@@H]1CN([C@@H](C)CO)C(=O)c2cc(NC(=O)c3ccncc3)ccc2O[C@H]1CN(C)Cc1ccc2c(c1)OCO2,inactive: 1.02
20,CCS(=O)(=O)N1C[C@]2(CN(C2)C(=O)CN2CCOCC2)c2c(n(c3cc(ccc23)OC)C)[C@H]1CO,inactive: 1
